Reference: PubChem BioAssay AID1347073 (National Center for Advancing Translational Sciences (NCATS), 2019)
About 200 (0.44%) of roughly 45,000 compounds were called active. Inconclusive results (about 7%) are left out. The call rests on the fitted dose curve; in most records, active means well fitted activation curve with a large enough effect; inconclusive means small, poorly fitted or top-dose-only effect; inactive means no such curve, though single readings can be large or run the other way. Some of the results follow.

Test: qHTS of TDP-43 Inhibitors: NCGC Sytravon Library Screen; further: 0% is about no effect; nearly all actives have a fitted effect of over 55% in size
Settings: yeast TDP-43 toxicity rescue, BacTiter-Glo growth, 24 h; series mostly up to 46.1 µM; growth rescue (activation): at the top concentration
In short: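 TDP-43-expressing yeast, pregrown in raffinose, seeded at OD600 0.02 in galactose medium with compound for 24 hr at 30 deg C. Growth read by BacTiter-Glo luminescence, so rescue of toxicity appears as activation.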

Compound	growth rescue (activation)
N/C(=N\OC(=O)c1ccccc1)c1ccncc1	inactive: 10.2%
Cc1cc(C)n(C2CC(=O)N(c3ccc(Cl)c(Cl)c3)C2=O)n1 (stereo not drawn)	inactive: 6.39%
CCc1cccc(C)c1NC(=O)Cc1ccsc1	inactive: 14.4%
Cc1cc2nc(N3C(=O)CNC3=S)sc2cc1C	inactive: -6.75%
CCOC(=O)Cc1ccc(NC(=O)NC(C)c2c(-n3cccc3)sc(C)c2C)cc1 (stereo not drawn)	inactive: 6.5%
COc1cc2cc(CN(Cc3cccnc3)C(=O)NCc3ccccc3)c(=O)[nH]c2cc1OC	inactive: 5.99%
Cc1c(C(=O)Nc2cccc(S(=O)(=O)N3CCOCC3)c2)oc2ccc(Br)cc12	inactive: 12.3%
COc1ccc(NC(=O)C2(S(=O)(=O)c3ccc(C)cc3)CC2)cc1	inactive: -0.63%
Cc1ccc(NC(=O)C(=O)NCCN2CCN(S(C)(=O)=O)CC2)cc1C	inactive: 16.4%
Cc1ccc(/C=N\NC(=O)CC(=O)NCCc2ccccc2)cc1	inactive: 6.75%
COC(=O)C(Cc1ccccc1)NC(=O)CNC(=O)c1sc2ccccc2c1Cl (stereo not drawn)	inactive: 10.6%
CC(=O)Nc1sc2c(c1C(c1ccccc1)N1CCOCC1)CCCC2 (stereo not drawn)	inactive: 22%
Cc1ccccc1C1NC(=O)Cc2ccccc21 (stereo not drawn)	inactive: 4.83%
Cc1cccc(NC(=S)N2CCOCC2)c1C	inactive: 7.74%
CC(C(=O)NC1CCCC1)N(C(=O)Cn1nnc(-c2ccc(F)cc2)n1)c1ccccc1F (stereo not drawn)	inactive: -7.59%
O=C(NC1(C(F)(F)F)N=C(c2ccccc2)NC1=O)c1ccccc1 (stereo not drawn)	inactive: -7.77%
COc1ccccc1NC(=O)Nc1nc(C(N)Cc2ccccc2)cs1 (stereo not drawn)	inactive: 1.41%
CN(C)S(=O)(=O)Oc1ccc(C(=O)Nc2cccc(Cl)c2)cc1	inactive: 7.65%
O=C(Nc1ccc(S(=O)(=O)N2CCCCC2)cc1)C1CCCN(C(=O)c2ccc(Cl)cc2)C1 (stereo not drawn)	inactive: 2.2%
Cc1ccc2[nH]c(=O)c(CN(CCCN3CCOCC3)C(=O)Nc3ccc(Cl)cc3)cc2c1	inactive: 2.7%
CCN(C(=O)CSc1ccc2ccccc2c1)C1CCS(=O)(=O)C1 (stereo not drawn)	inactive: 13.6%
CC(=O)Nc1cccc(Oc2ccc([N+](=O)[O-])cc2Cl)c1	inactive: -0.647%

Compound	growth rescue (activation)
N#Cc1ccc(C(=O)CN2CCN(c3ccccc3)CC2)cc1	inactive: 8.73%
O=C(NNC(=O)c1cccs1)c1ccc(Cl)cc1	inactive: 18%
CCCC(=O)Nc1ccc(-c2cn3cccnc3n2)cc1	inactive: 9.63%
CC(C)C(=O)Nc1ccc([N+](=O)[O-])cc1Br	inactive: 7.74%
O=C(COC(=O)c1ccc2ncsc2c1)Nc1ccc(OC(F)(F)F)cc1	inactive: 19.1%
Cc1cc(C(=O)CSc2nn3c(=O)c(C(C)(C)C)nnc3s2)c(C)n1C1CC1	inactive: 13.1%
COc1ccc(-c2[nH]ncc2CN2CCCO2)cc1F	inactive: 5.57%
Cn1cccc1C(=O)OCC(=O)NCc1cccs1	inactive: 13.3%
O=C(CCNC(=O)c1ccc([N+](=O)[O-])cc1)NCc1cccs1	inactive: 6.37%
COc1ccc(C2=NN(C(=O)c3ccco3)C(c3ccco3)C2)cc1OC (stereo not drawn)	inactive: 14.2%
COc1ccc(NC(=O)CN2C(=O)NC(c3ccccc3)(c3ccccc3)C2=O)cc1	inactive: -4.91%
CC(=O)c1cccc(NC(=O)C(OC(=O)c2ccccc2NS(=O)(=O)c2cccs2)c2ccccc2)c1 (stereo not drawn)	inactive: 19.9%
CCOC(=O)C1(Cc2cccc(Cl)c2)CCCN(C(=O)c2cc(C)on2)C1 (stereo not drawn)	inactive: 18.9%
O=C(O)c1ccc(-n2c(/C=C\c3ccc(O)cc3)nc3ccccc3c2=O)cc1	inactive: 2.94%
CC(C)Cc1nc2sc3c(=O)[nH]cnc3c2c2c1CCCC2	inactive: 6.39%
CC(C)COc1ccc(CNC(=S)Nc2ccccc2)cc1Cl	inactive: 19.2%
COCCNc1nc(Nc2ccc(C#N)cc2)c2sccc2n1	inactive: 16.8%
CC(C)Cn1cnc2c1c(=O)n(CC(=O)NN)c(=O)n2Cc1ccccc1	inactive: -18.3%
CCCc1cc(=O)[nH]c(SCC(=O)Nc2cc(C)on2)n1	inactive: 13.6%
CS(=O)(=O)Nc1ccc2[nH]c(=O)[nH]c2c1	inactive: 1.01%
CCc1ccccc1NC(=O)Nc1ccc(F)cc1	inactive: 8.83%
COc1ccc(-c2nn(-c3ccccc3)cc2/C=N/NC(=O)c2cccc(S(=O)(=O)Nc3ccccc3Cl)c2)cc1	inactive: 20%

Compound	growth rescue (activation)
COc1cc(C(=O)Oc2ccccc2/C=N/NC(=O)c2ccc(Cl)cc2)cc(OC)c1OC	inactive: -6.81%
COc1ccc(CNC(=O)COC(=O)c2ccc(S(=O)(=O)N3CCOCC3)cc2)cc1	inactive: -7.22%
COc1ccc(Cn2ccnc2CO)cc1[N+](=O)[O-]	inactive: -2.11%
COc1ccccc1C(=O)NNC(=O)CCCN1C(=O)/C(=C/c2cccs2)SC1=S	inactive: 19%
CC(=O)NNS(=O)(=O)c1ccccc1[N+](=O)[O-]	inactive: -11%
CC(=O)CCC(=O)N1CCC(n2nccc2NC(=O)c2ccccc2C)CC1	inactive: -14.5%
COc1ccc(-n2c(C)cc(/C=C3/SC(=S)N(C)C3=O)c2C)cc1	inactive: 15.8%
Cc1cc(C)c2c(c1)C(=O)/C(=C/c1ccc(C(=O)O)cc1)CC2	inactive: 4.8%
COc1cc(/C=C/C(=O)OCC(=O)N2CCCc3ccccc32)ccc1O	inactive: 13.4%
CC(C)CNC(=O)C1(C)CCCN1C(=O)c1ccc2c(c1)CCO2 (stereo not drawn)	inactive: -3.94%
COc1cc(NC(=O)CSc2nc3cc(C)ccc3cc2C)c(C(=O)O)cc1OC	inactive: 12%
O=C(c1ccc2c(c1)OCO2)N1CCc2ccccc21	inactive: 8.05%
COCCCNC(=O)c1ccc([N+](=O)[O-])cc1	inactive: 4.7%
C=CCc1ccc(OCc2ccc(C(=O)O)o2)c(OC)c1	inactive: 1.65%
CC(C)N1CCCC(CNC(=O)CCc2nnc(CCCCc3ccccc3)o2)C1 (stereo not drawn)	inactive: 2.1%
O=C(CNS(=O)(=O)c1c(F)cccc1F)NC1CCCc2ccccc21 (stereo not drawn)	inactive: -2.27%
Cc1ccc2c(c1)sc1nc(=O)n(-c3ccccc3)c(=O)n12	inactive: -13.6%
CC(C)(C)c1ccc(C(=O)Nc2ccc(C=C(C#N)C#N)cc2)cc1	inactive: 25.2%
Cc1ccc(OCc2cc(C(=O)N3CCN(C)C[C@@H]3c3ccccc3)no2)cc1C	inactive: 3.36%
COc1ccc(OC)c(/C=C(/C#N)c2nc(-c3ccc(-c4ccccc4)cc3)cs2)c1	inactive: 13%
CC[C@@H](C)[C@H](NS(=O)(=O)c1ccc(C)cc1)C(=O)N1CCC(C(=O)NCC(=O)O)CC1	inactive: 2.87%
Cc1sc(NC(=O)c2ccco2)c(C(Nc2ccccn2)c2ccccc2)c1C (stereo not drawn)	inactive: 4.62%

Compound	growth rescue (activation)
O=C(Nc1ccc(C(=O)O)cc1)/C(=C/c1cccc(Br)c1)NC(=O)c1ccco1	inactive: 4.2%
CC(NS(=O)(=O)c1ccc(NC(=O)N2CCCCC2)cc1)c1ccccc1 (stereo not drawn)	inactive: 21%
CCCc1nnc(NC(=O)CCC(=O)NCc2ccc(OC)cc2)s1	inactive: 9.9%
COc1ccc(CNC(=O)C(C)Sc2ccc(S(=O)(=O)N3CCOCC3)cn2)cc1 (stereo not drawn)	inactive: -1.03%
Cc1ccc(/C=N/NC(=O)Cc2cccn2C)s1	inactive: 6.93%
Cc1cc(CNC(=O)CC2C(=O)NCCN2Cc2ccccc2C(F)(F)F)on1 (stereo not drawn)	inactive: 11.2%
N#C/C(=C\C1=C(N2CCOCC2)C(=C\c2ccc(Cl)cc2)/CC1)C(=O)Nc1ccccc1F	inactive: -0.191%
Cc1ccccc1-c1csc(C(C)(O)c2ccc(F)c(F)c2)n1 (stereo not drawn)	inactive: 1.86%
Cc1ccc(S(=O)(=O)NCC(=O)OCC(=O)N2C(C)CCCC2C)cc1 (stereo not drawn)	inactive: -7.18%
CC(=O)OCC(=O)Nc1ccccc1OC(F)F	inactive: 1.98%
O=C(Cc1ccccc1[N+](=O)[O-])N1CCN(c2ccc(F)cc2)CC1	inactive: 33.8%
Cc1ccc(S(=O)(=O)N2CCCCC2)cc1C(=O)OC(C)C(=O)NCC1CCCCC1 (stereo not drawn)	inactive: 34.3%
O=C(CCC(=O)c1ccc(F)cc1)Nc1cccc(S(=O)(=O)Nc2cccc(Cl)c2)c1	inactive: 10.9%
C=CCNC(=S)NNC(=O)COc1c(Cl)cc(Cl)cc1Cl	inactive: 18.3%
COC(=O)[C@H](C)NC(=O)NCc1ccc(S(N)(=O)=O)cc1	inactive: 5.39%
S=C(CN1CCCC1=S)NCCc1ccccc1	inactive: 15.6%
Cc1c(NC(=O)Nc2ccc([N+](=O)[O-])cc2)c(=O)n(-c2ccccc2)n1C	inactive: -1.15%
Cc1ccc(Nc2cc(C(=O)NCCCN3CCOCC3)c3ccccc3n2)c(C)c1	inactive: -10.6%
COc1cccc(S(=O)(=O)N2CCN(Cc3ccc4c(c3)OCO4)CC2)c1	inactive: 23.7%
CCCCC(=O)NC(=S)NNS(=O)(=O)c1ccccc1	inactive: -1.61%
COc1cc(NC(=O)COC(=O)C=C(C)C)c(C)cc1[N+](=O)[O-]	inactive: 34.4%
Nc1nc(CSc2ccccc2)nc(N2CCCCC2)n1	inactive: -1.01%

Compound	growth rescue (activation)
Cc1ccc(NC2CCCN(C(=O)CCC3=NNC(=O)CC3)C2)cc1C (stereo not drawn)	inactive: -9.36%
CCN1C(C(=O)c2ccccc2)=C(Nc2ccccc2C)c2ccccc2S1(=O)=O	inactive: -6.85%
O=C(NOC(=O)c1ccccc1F)c1ccc(OC(F)F)cc1	inactive: -0.886%
COC(=O)c1ccc(C(=O)OC)c(NC(=S)N2CCN(c3ccccn3)CC2)c1	inactive: 0.535%
O=C(Nc1ccccc1Cl)NC1(C(=O)N2CCOCC2)CCCCC1	inactive: -5.02%
CCc1c(C)nc(N)nc1Cl	inactive: 0.0372%
Cc1nc2ccc(NS(=O)(=O)c3ccc4c(c3)OCCO4)cc2s1	inactive: 17.9%
O=C(OCC#CCSc1nnc(-c2ccncc2)o1)c1sc2ccccc2c1Cl	inactive: 23.5%
Cn1c(CCC(=O)OCC(=O)NCc2ccccc2Cl)nc(=O)c2ccccc21	inactive: 14.5%
CCCNc1nc2c(c(=O)[nH]c(=O)n2C)n1CCOc1ccccc1	inactive: 7.43%
Cc1cccc(NC(=O)Cn2c(=O)n(CC3CCCO3)c(=O)c3ccccc32)c1 (stereo not drawn)	inactive: 0.978%
Cc1cc(C(=O)N/N=C/c2cccnc2)n[nH]1	inactive: 3.92%
O=C(CCc1c[nH]c2ccccc12)N=Nc1c(O)[nH]c2ccccc12	inactive: 5.78%
O=C(CNC(=O)c1ccccc1F)NCc1ccncc1	inactive: 5.77%
CCN(CC)c1ccc(C(=O)NNC(=O)CCl)cc1	inactive: 13.5%
COC1=CC(=Cc2c(N)n3nc(CC(=O)N4CCOCC4)sc3nc2=O)C=C(OC)C1=O	inactive: -4.22%
CC1CCN(S(=O)(=O)c2cccc(S(=O)(=O)N3CCCC3)c2)CC1	inactive: 9.12%
CCN(CC)S(=O)(=O)c1cccc(NC(=O)CN(C)Cc2cccc(OC)c2)c1	inactive: 1.64%
Cc1c(NS(=O)(=O)c2cccc3nsnc23)c(=O)n(-c2ccccc2)n1C	inactive: 0.509%
O=C(O)CCNc1nc(C(F)(F)F)nc2ccccc12	inactive: 4.98%
